Experimental data published in the RNAGym collection of RNA variant scans (doi:10.1093/nar/gkz1192).
The source gives no read counts; variants with many changes may rest on few reads.

B1: CPEB3 Ribozyme (parent)
chain: UAACAGGGGGCCACAGCAGAAGCGUUCACGUCGCAGCCCCUGUCAGAUUCUGGUGAAUCUGCGAAUUCUGCUGUAUAUCUC

Variants of: B1
Test: self-cleavage, relative activity (ratio to wild type); higher = more cleavage; in vitro, sequencing
How it was run: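 After error-prone PCR and barcoding, CPEB3 ribozyme mutant libraries were transcribed with T7 RNA polymerase at 37°C for 5 hours, then given 15 min with DNase I before an EDTA stop, and they cleaved during both steps. Reverse transcription with template switching preceded Illumina sequencing. Relative activity divides a variant's cleaved/total read fraction by the unmutated ribozyme's. At least 5 reads were required per variant, and three batches were averaged.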
Variant A18U G19A U72C has a self-cleavage of 0.42.
With A18U G19C U26C U72A the self-cleavage was 0.07.
Work on A18U G19U A21U U69A yielded a self-cleavage of 0.14.
A18U G19U A35U A56U U74C showed a self-cleavage of 0.12.
A18U G22U G52C U72C gave a self-cleavage of 0.24.
A18U G22U U43A U49C U80A showed a self-cleavage of 0.29.
With A18U G24A A35U U67C U72C the self-cleavage was 0.06.
For A18U G24A G42U A57G, the self-cleavage was 0.16.
Variant A18U G24C U49C U72A has a self-cleavage of 0.07.
Variant A18U G30A A45U A64G has a self-cleavage of 0.14.
With A18U G30A A65G U78C the self-cleavage was 0.05.
A18U G30A U41A A57G C62G U74C C79A gave a self-cleavage of 0.07.
Work on A18U G33A A35U U58C U72C U76C U78C yielded a self-cleavage of 0.05.
Variant A18U G33A A47C A57G has a self-cleavage of 0.07.
Variant A18U G33A U43A U54A A56U A57G has a self-cleavage of 0.13.
A18U G33A U43C G53A A56G U74C A77U showed a self-cleavage of 0.04.
Work on A18U G33A U48C yielded a self-cleavage of 0.16.
A18U G33C U43C A56G gave a self-cleavage of 0.23.
In the case of A18U G36A U41C C59A A77G, the self-cleavage is reported as 0.12.
Work on A18U G42U A45U yielded a self-cleavage of 0.26.
A18U G52A C62G gave a self-cleavage of 0.1.
With A18U G53A U54C the self-cleavage was 0.31.
Variant A18U U25A A65U G73A has a self-cleavage of 0.29.
For A18U U25A U74C, the self-cleavage was 0.31.
Work on A18U U25C A28G U31C U43C A57G A65U yielded a self-cleavage of 0.12.
With A18U U25C A35G A65U U72C the self-cleavage was 0.06.
In the case of A18U U25C A35U A47G U66C U67G, the self-cleavage is reported as 0.17.
In the case of A18U U25C A45G A56C, the self-cleavage is reported as 0.38.
For A18U U25C A45U U78C, the self-cleavage was 0.57.
With A18U U25C A64G the self-cleavage was 0.1.
For A18U U25C A64G U72C, the self-cleavage was 0.39.
A18U U25C A65C U74A showed a self-cleavage of 0.08.
A18U U25C C39U C40U U67A A77G showed a self-cleavage of 0.11.
In the case of A18U U25C G30A C39A U74C A75G, the self-cleavage is reported as 0.09.
A18U U25C G42A C50A A57G gave a self-cleavage of 0.21.
With A18U U25C U26C G70C U76A the self-cleavage was 0.08.
A18U U25C U26G U69G showed a self-cleavage of 0.34.
A18U U25C U31A G52A gave a self-cleavage of 0.17.
A18U U25C U31A U41A showed a self-cleavage of 0.19.
In the case of A18U U25C U31C U43C U48C U80C, the self-cleavage is reported as 0.05.
With A18U U25C U41C the self-cleavage was 0.27.
A18U U25C U41G gave a self-cleavage of 0.45.
A18U U25C U48A C62U showed a self-cleavage of 0.04.
A18U U25C U48G U66C showed a self-cleavage of 0.32.
Variant A18U U25C U54C U80C has a self-cleavage of 0.18.
Variant A18U U25C U66G U67C C81A has a self-cleavage of 0.21.
A18U U25C U74A U80A gave a self-cleavage of 0.05.
Variant A18U U25C U74C has a self-cleavage of 0.46.
With A18U U25C U78C the self-cleavage was 0.32.
For A18U U25G A28G U43C U51C, the self-cleavage was 0.28.
In the case of A18U U25G A45G U49C, the self-cleavage is reported as 0.15.
With A18U U26A A35G C37A the self-cleavage was 0.12.
A18U U26A A35U A47G A75C showed a self-cleavage of 0.14.
Variant A18U U26A A35U U41C has a self-cleavage of 0.17.
With A18U U26A A56G U74A the self-cleavage was 0.21.
A18U U26A A77U showed a self-cleavage of 0.28.
Variant A18U U26A C27U A28G U41A G63A has a self-cleavage of 0.09.
With A18U U26A G52A U69A the self-cleavage was 1.08.
A18U U26A U31C U41C U60A U72C showed a self-cleavage of 0.19.
Variant A18U U26A U31C U41C U72C has a self-cleavage of 0.12.
Work on A18U U26A U54C yielded a self-cleavage of 0.2.
For A18U U26A U66C U72C, the self-cleavage was 0.2.
Work on A18U U26C A28G U43C A75U yielded a self-cleavage of 0.07.
With A18U U26C A28U U31C the self-cleavage was 0.21.
A18U U26C A45G A65G gave a self-cleavage of 0.07.
For A18U U26C A47U, the self-cleavage was 0.08.
For A18U U26C A57G, the self-cleavage was 0.09.
In the case of A18U U26C A64G U66C U67C, the self-cleavage is reported as 0.06.
A18U U26C C27A U31C U78C U80C gave a self-cleavage of 0.21.
For A18U U26C U41A, the self-cleavage was 0.34.
For A18U U26C U43G A64U, the self-cleavage was 0.09.
A18U U26C U48C U78C gave a self-cleavage of 0.29.
For A18U U26C U51C U78C, the self-cleavage was 0.06.
A18U U26C U60C gave a self-cleavage of 0.11.
Variant A18U U26C U74A has a self-cleavage of 0.3.
With A18U U31A A45G the self-cleavage was 0.15.
A18U U31A A47G U51C G63U showed a self-cleavage of 0.39.
With A18U U31A C68U U69A U80C the self-cleavage was 0.42.
A18U U31A U66C C68U U80C gave a self-cleavage of 0.33.
In the case of A18U U31A U69A, the self-cleavage is reported as 0.53.
A18U U31A U78A showed a self-cleavage of 0.43.
For A18U U31C A45U U49C, the self-cleavage was 0.18.
With A18U U31C A47G U58C A64U A77U U78C the self-cleavage was 0.14.
In the case of A18U U31C A56U U72G U74C, the self-cleavage is reported as 0.12.
In the case of A18U U31C C38U U43A, the self-cleavage is reported as 0.12.
With A18U U31C C39U A45G the self-cleavage was 0.06.
Work on A18U U31C U41A A45U U49C U60A U80A yielded a self-cleavage of 0.08.
For A18U U31C U41A U58C G73A A75G, the self-cleavage was 0.06.
A18U U31C U41G A65G gave a self-cleavage of 0.22.
For A18U U31C U43C A57G U66C, the self-cleavage was 0.14.
A18U U31C U49C U69A showed a self-cleavage of 0.16.
A18U U31C U49G showed a self-cleavage of 0.16.
With A18U U31C U54C G73U the self-cleavage was 0.24.
With A18U U31C U60C U74C the self-cleavage was 0.13.
A18U U31C U67G U76C gave a self-cleavage of 0.18.
With A18U U41A A64G A75U the self-cleavage was 0.09.
A18U U41A C59U gave a self-cleavage of 0.2.
For A18U U41A U48A, the self-cleavage was 0.2.
In the case of A18U U41A U49A G53A, the self-cleavage is reported as 0.09.
Variant A18U U41A U58A G70A has a self-cleavage of 0.16.
A18U U41A U72A U78A U80C showed a self-cleavage of 0.08.
Variant A18U U41A U76A has a self-cleavage of 0.05.
For A18U U41C A45C, the self-cleavage was 0.55.
A18U U41C A47G A57C C79U showed a self-cleavage of 0.49.
In the case of A18U U41C A57U, the self-cleavage is reported as 0.31.
With A18U U41C G42C U69A the self-cleavage was 0.17.
A18U U41C U51A U78C gave a self-cleavage of 0.62.
Variant A18U U41G A47G has a self-cleavage of 0.29.
A18U U41G A57G U60A A77G showed a self-cleavage of 0.21.
For A18U U41G U43C A64G U66C U80C, the self-cleavage was 0.13.
A18U U41G U80A showed a self-cleavage of 0.28.
A18U U43A U51A U60G C62U U67C U74C gave a self-cleavage of 0.45.
For A18U U43A U66C, the self-cleavage was 0.24.
With A18U U43A U66G the self-cleavage was 0.35.
With A18U U43C A56U A57G U60C U66C U76A the self-cleavage was 0.19.
For A18U U43C A57C U67C U76C U80C, the self-cleavage was 0.1.
Work on A18U U43C U48C yielded a self-cleavage of 0.13.
With A18U U43C U66C A75U U78C the self-cleavage was 0.09.
For A18U U43C U69C A75U, the self-cleavage was 0.12.
For A18U U43C U69C U80A, the self-cleavage was 0.25.
In the case of A18U U43C U80C, the self-cleavage is reported as 0.35.
Work on A18U U48C U60A yielded a self-cleavage of 0.53.
For A18U U48C U67A U74C, the self-cleavage was 0.21.
Work on A18U U49A A56G yielded a self-cleavage of 0.2.
For A18U U49A U58C, the self-cleavage was 0.21.
Work on A18U U49C A56G U74A yielded a self-cleavage of 0.67.
Work on A18U U49C A56U yielded a self-cleavage of 0.27.
In the case of A18U U49C A64G U76C, the self-cleavage is reported as 0.2.
For A18U U49C U51A A56G U72A A77G U80C, the self-cleavage was 0.45.
In the case of A18U U51A A56G U78C, the self-cleavage is reported as 0.19.
For A18U U51A U72A, the self-cleavage was 0.17.
Variant A18U U51A U72C U80C has a self-cleavage of 0.28.
A18U U51C A56G A65U U78C gave a self-cleavage of 0.24.
Variant A18U U51C G63U has a self-cleavage of 0.23.
Work on A18U U51C U66C yielded a self-cleavage of 0.46.
With A18U U51C U66C U72A U74C the self-cleavage was 0.19.
A18U U51C U69A A75G showed a self-cleavage of 0.99.
A18U U51C U80C gave a self-cleavage of 0.61.
A18U U54A U58C showed a self-cleavage of 0.31.
A18U U54C C68A showed a self-cleavage of 0.22.
A18U U54C C71U U72C gave a self-cleavage of 0.1.
In the case of A18U U58A C68A, the self-cleavage is reported as 0.18.
Work on A18U U58C U67C U80A yielded a self-cleavage of 0.15.
A18U U60C U69C U72A A75G gave a self-cleavage of 0.2.
Variant A18U U60C U78C has a self-cleavage of 0.34.
In the case of A18U U67A A75U, the self-cleavage is reported as 0.23.
Work on A18U U67C U78A yielded a self-cleavage of 0.19.
In the case of G19A A20G U31A U76C A77U, the self-cleavage is reported as 0.13.
With G19A A20U A21G C34A A45G U60C U72A the self-cleavage was 0.11.
G19A A21G C23U A28G U69C showed a self-cleavage of 0.06.
In the case of G19A A21G U31C A47U U72A U74C, the self-cleavage is reported as 0.05.
In the case of G19A A21G U41A A56G A64U, the self-cleavage is reported as 0.43.
Variant G19A A21G U41A A75G has a self-cleavage of 0.08.
Work on G19A A21G U43C A45G U60C U78A yielded a self-cleavage of 0.15.
Variant G19A A28G A47U A57G U60A A77U U78C has a self-cleavage of 0.06.
Variant G19A A28G C37U has a self-cleavage of 0.1.
Work on G19A A28G G52A yielded a self-cleavage of 0.13.
For G19A A28G U31C A64U U80C, the self-cleavage was 0.41.
G19A A28G U41C A56C U58A A64G A65G gave a self-cleavage of 0.03.
In the case of G19A A28G U48C A56G U80C, the self-cleavage is reported as 0.1.
For G19A A28U A47G U67C, the self-cleavage was 0.14.
With G19A A28U U41C G42C A56G A75G A77G the self-cleavage was 0.05.
With G19A A35G U43C U80C the self-cleavage was 0.3.
In the case of G19A A45G A47U A64U U66C U76C, the self-cleavage is reported as 0.03.
For G19A A45G G55A U67C U74C, the self-cleavage was 0.16.
Work on G19A A45G U60A A65G U66A yielded a self-cleavage of 0.07.
For G19A A47U A64U A75U, the self-cleavage was 0.13.
